System: U2OS cells stably expressing G3BP-GFP or GFP-LC3
Assay: Stress granules (G3BP-GFP) and autophagosomes (GFP-LC3)

[NH2][Pt]([NH2])([Cl])[Cl] [CDDP, cisplatin]
formation of stress granules and macroautophagy: failed to stimulate the formation of stress granules and macroautophagy

— patent publication US8865653B2, “Method of treatment for immunogenic treatment resistant cancer” (Institut Gustave Roussy, priority 2010, dated 2014)
